Experimental findings from article PMC12421383, “Autophosphorylation of conserved yeast and human casein kinase 1 isozymes regulates Elongator-dependent tRNA modifications” (Nucleic Acids Research, 2025) are described below.

Substitutions are numbered along the chain they refer to. In names and notes the source's numbering stands. No constants are given. Whether binding was seen depends on the method and setting. For some of these results: Binding seen in cells or lysates may run through a third protein. Some results given as binding are weak or reduced against the parent protein; the word gives no strength. Sequences can lack the tags named with a protein.

Experiment [1] addresses T1, FL GST-Elp1 (Saccharomyces cerevisiae (budding yeast)) (UniProt Q06706).
T1 sequence: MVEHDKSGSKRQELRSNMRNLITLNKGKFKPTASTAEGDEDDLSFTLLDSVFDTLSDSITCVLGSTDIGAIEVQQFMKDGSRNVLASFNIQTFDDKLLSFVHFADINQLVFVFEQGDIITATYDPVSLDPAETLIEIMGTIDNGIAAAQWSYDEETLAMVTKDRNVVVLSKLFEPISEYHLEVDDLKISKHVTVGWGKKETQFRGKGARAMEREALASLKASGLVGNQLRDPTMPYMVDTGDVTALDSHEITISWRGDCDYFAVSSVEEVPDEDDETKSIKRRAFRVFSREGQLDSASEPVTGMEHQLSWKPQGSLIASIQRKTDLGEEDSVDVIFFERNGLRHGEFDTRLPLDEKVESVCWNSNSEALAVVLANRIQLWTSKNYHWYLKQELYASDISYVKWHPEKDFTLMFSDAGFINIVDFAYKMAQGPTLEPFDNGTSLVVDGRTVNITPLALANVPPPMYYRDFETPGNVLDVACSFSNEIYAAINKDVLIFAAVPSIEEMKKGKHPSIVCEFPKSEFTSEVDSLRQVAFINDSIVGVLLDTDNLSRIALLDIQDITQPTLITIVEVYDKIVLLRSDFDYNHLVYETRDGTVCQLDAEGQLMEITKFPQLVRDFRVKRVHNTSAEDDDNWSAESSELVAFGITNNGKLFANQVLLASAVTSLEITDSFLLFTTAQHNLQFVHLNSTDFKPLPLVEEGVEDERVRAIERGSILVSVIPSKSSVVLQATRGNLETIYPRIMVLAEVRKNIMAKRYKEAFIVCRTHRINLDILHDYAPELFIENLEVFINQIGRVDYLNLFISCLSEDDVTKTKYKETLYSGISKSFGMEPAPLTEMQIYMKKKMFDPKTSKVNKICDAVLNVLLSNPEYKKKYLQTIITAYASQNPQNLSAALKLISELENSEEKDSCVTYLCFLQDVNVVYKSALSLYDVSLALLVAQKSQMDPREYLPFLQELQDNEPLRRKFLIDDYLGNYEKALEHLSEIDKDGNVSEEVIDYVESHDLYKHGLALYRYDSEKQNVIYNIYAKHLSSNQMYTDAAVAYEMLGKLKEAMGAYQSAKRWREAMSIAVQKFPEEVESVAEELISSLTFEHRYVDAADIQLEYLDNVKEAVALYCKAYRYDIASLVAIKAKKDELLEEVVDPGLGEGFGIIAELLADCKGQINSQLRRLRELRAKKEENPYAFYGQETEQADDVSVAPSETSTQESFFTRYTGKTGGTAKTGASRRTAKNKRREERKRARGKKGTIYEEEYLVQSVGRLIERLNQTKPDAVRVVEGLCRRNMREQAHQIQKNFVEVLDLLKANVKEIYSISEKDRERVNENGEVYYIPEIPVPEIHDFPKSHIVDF
As to the kind of experiment: pull-down; 20 μg GST-tagged bait mixed with equimolar Hrr25 variant, GST Sepharose 4B, 1 h at 4°C; 20 mM Tris pH 7.5, 150 mM NaCl, 0.5% Tween 20, 2 mM DTT, 2 mM MgCl2; three washes; SDS-PAGE and WB with Hrr25-specific antibodies; both purified.

Experiment [2] concerns the target T2, GST-tagged Sit4 (Saccharomyces cerevisiae (budding yeast)) (UniProt P20604).
T2 sequence: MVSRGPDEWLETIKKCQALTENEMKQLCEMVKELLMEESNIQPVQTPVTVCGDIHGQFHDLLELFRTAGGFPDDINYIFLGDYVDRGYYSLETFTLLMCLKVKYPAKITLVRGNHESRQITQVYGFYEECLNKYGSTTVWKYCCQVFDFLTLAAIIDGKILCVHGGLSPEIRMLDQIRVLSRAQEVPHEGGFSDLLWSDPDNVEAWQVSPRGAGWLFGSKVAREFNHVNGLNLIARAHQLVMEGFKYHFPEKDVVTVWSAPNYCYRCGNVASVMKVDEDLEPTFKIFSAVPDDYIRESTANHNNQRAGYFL
The description is as above.

The target of experiment [3] is T3, Myc-tagged Elp1 (Saccharomyces cerevisiae (budding yeast)) (UniProt Q06706).
T3 sequence: T1 sequence
The experiment is described as follows: co-IP; IP of c-Myc-tagged Elp1 from yeast total protein extract (6.5 mg) with anti-c-Myc 9E10 on magnetic beads, 16 h at 4°C, IPP100 buffer (10 mM Tris-HCl pH 8, 100 mM NaCl, 0.1% NP-40, 1 mM DTT) with protease and phosphatase inhibitors; WB with anti-Hrr25.

B1: Hrr25 K38R, predominantly trans-autophosphorylated (enzyme, UniProt P29295 1-494)
chain: MDLRVGRKFRIGRKIGSGSFGDIYHGTNLISGEEVAIRLESIRSRHPQLDYESRVYRYLSGGVGIPFIRWFGREGEYNAMVIDLLGPSLEDLFNYCHRRFSFKTVIMLALQMFCRIQYIHGRSFIHRDIKPDNFLMGVGRRGSTVHVIDFGLSKKYRDFNTHRHIPYRENKSLTGTARYASVNTHLGIEQSRRDDLESLGYVLIYFCKGSLPWQGLKATTKKQKYDRIMEKKLNVSVETLCSGLPLEFQEYMAYCKNLKFDEKPDYLFLARLFKDLSIKLEYHNDHLFDWTMLRYTKAMVEKQRDLLIEKGDLNANSNAASASNSTDNKSETFNKIKLLAMKKFPTHFHYYKNEDKHNPSPEEIKQQTILNNNAASSLPEELLNALDKGMENLRQQQPQQQVQSSQPQPQPQQLQQQPNGQRPNYYPEPLLQQQQRDSQEQQQQVPMATTRATQYPPQINSNNFNTNQASVPPQMRSNPQQPPQDKPAGQSIWL
modifications: phosphorylated in trans by Hrr25 WT; sites not given
As for B1, the binding result in experiment [1] and in experiment [2] was “binds” each time.

B2: Hrr25 S143A/T144A/S181A/S191A/S198A (enzyme, UniProt P29295 1-494)
chain: B1 chain with R38K, S143A, T144A, S181A, S191A, S198A
As for B2, in experiment [3], the binding result is “no binding”.

B3: Hrr25 wild type in yeast extract (enzyme, UniProt P29295 1-494)
chain: B1 chain with R38K
Take B3: in experiment [3], the binding entry is recorded as “binds”.

B4: Hrr25 S181A/S191A/S198A (enzyme, UniProt P29295 1-494)
chain: B1 chain with R38K, S181A, S191A, S198A
For the molecule B4, the binding result in experiment [3] is “binds”.

B5: Hrr25 T27A/S31A (enzyme, UniProt P29295 1-494)
chain: B1 chain with T27A, S31A, R38K
B5: the binding result in experiment [3] was “no binding”.

B6: Elp1 as used in the pull-down of Fig. 6C (protein, UniProt Q06706 1-1349)
chain: T1 sequence
As for B6, the binding result in experiment [2] is “binds”.
